Measurements from ChEMBL document CHEMBL1201862, “PubChem BioAssay data set” (2004).
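Values below derive from 48-hour exposures of cells grown in 96-well plates, with endpoints linearly interpolated between the two concentrations bracketing the appropriate inhibition level. At the GI50, growth is halved.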 The source made the active and inactive calls. Cut-off read from the data, not from the text of the source: active = GI50 up to about 1.1 µM and inactive = higher.

system: NCI-H322M; experiment: growth of human tumour cells (NCI), 48 h

SMILES	GI50
c1ccc(/N=C2\SC(=NNc3ccccc3)S\C2=N/c2ccccc2)cc1	inactive: > 100 µM
CC(=O)CSCc1ccccn1	inactive: > 100 µM
Cc1cc2c(nn1)CCc1c-2no[n+]1[O-]	inactive: > 100 µM
CN(C)c1ccc(-c2cc(O)c3ccccc3n2)cc1	inactive: > 100 µM
CCCCc1ccc(-n2sc3ncccc3c2=O)cc1	inactive: 19.5 µM
CCOC(CN(C)C(=S)Nc1cccc2ccccc12)OCC	inactive: > 10 µM
COc1cc(C2C(Cl)C(=O)N2n2cnc3ccccc3c2=O)cc(OC)c1OC (centres undefined)	inactive: > 100 µM
COn1cc(CO)c2ccccc21	inactive: > 86.7 µM
CN(C)c1ccc(N2C(=S)SC(=N\c3ccccc3)/C2=N/c2ccccc2)cc1	inactive: > 100 µM
COc1cc(C2C(C(=O)O)=C(COC(C)=O)Oc3cc4c(cc32)OCO4)cc(OC)c1OC (centres undefined)	inactive: > 100 µM
CC(c1ccccc1)/[N+]([O-])=C/c1ccccc1 (centres undefined)	inactive: > 100 µM
Nc1nc(N)c2ncn(-c3ccc(Cl)c(Cl)c3)c2n1	inactive: 29.6 µM
O=C(O)CCc1cccc2c1oc1c(CCC(=O)O)cccc12	inactive: > 100 µM
Cc1cc(NS(=O)(=O)c2ccc(NC(=O)c3ccc(Cl)c4c(Nc5ccc(S(N)(=O)=O)cc5)c5ccccc5nc34)cc2)no1	inactive: 18.6 µM
CN(C)CCCCN1c2ccccc2Sc2cc(N=[N+]=[N-])ccc21	inactive: 2.61 µM
O=C(O)C1Cc2[nH]c3ccccc3c2C2CCCC12 (centres undefined)	inactive: > 100 µM
COc1ccc(O)cc1C(O)c1ccccc1 (centres undefined)	inactive: > 100 µM
CC(C)C(N)C(=O)NC(CCC(=O)NCCCCC(N)C(=O)NCCCNc1ccc([N+](=O)[O-])c2[nH]c3ccccc3c(=O)c12)C(N)=O (centres undefined)	inactive: 63.2 µM
N#Cc1ccccc1OCCOc1ccccc1C#N	inactive: > 100 µM
CSC(SC)=C1CC(=O)Nc2ccccc2C1=O	inactive: > 100 µM
Cc1ccc(S(=O)(=O)n2c3c(c4ccccc42)CCN2C[C@H]([C@H](C)Br)CC[C@@H]32)cc1	inactive: > 100 µM
CCCCCCCC(=O)N1C2CC3CCC2(CS1(=O)=O)C3(C)C (centres undefined)	inactive: > 10 µM
Brc1cccc(/C=N/C23CC4CC(CC(C4)C2)C3)c1	inactive: > 100 µM
O=C(O)CCc1coc2ccc(O)cc12	inactive: > 100 µM

SMILES	GI50
C[N+](C)(C)CC(=O)N/N=C(/CC(=O)CC(C1=C(O)c2ccccc2OC1)c1ccccc1)C(=O)Nc1cccc(Cl)c1 (centres undefined)	inactive: > 100 µM
CN1CCC2(CC1)SSC1(CCN(C)CC1)S2	inactive: > 100 µM
Cc1cc2occ(S(=O)(=O)NC(=O)Nc3ccc(Cl)cc3)c(=O)c2c(=O)o1	inactive: > 100 µM
CC1(C)/C(=N\NC(N)=O)C2CCC1C2 (centres undefined)	inactive: > 100 µM
Cc1cc(C2(c3cc(C)c(O)c4ncccc34)OC(=O)c3ccccc32)c2cccnc2c1O	active: 0.372 µM
COCCn1cnc2c(Cl)nc(Nc3ccccc3)nc21	inactive: 29.2 µM
C=CCOC(=O)N1c2ccc(O)cc2[C@@]23O[C@@]24[C@@H]1C#C/C=C\C#C[C@]3(O)C(=O)C[C@@H]4C	inactive: > 100 µM
C=C(Br)CN(C#N)CC(=C)Br	inactive: > 100 µM
Cc1cc(=O)oc2cc3c(cc12)Oc1ccccc1O3	inactive: > 100 µM
COC(=O)c1cc(C)ccc1CC(Cc1ccc(C)cc1)C(=O)OC (centres undefined)	inactive: > 100 µM
CC1=NN2C(c3ccc([N+](=O)[O-])cc3)=CSC2=NC(C)(C)C1	inactive: > 100 µM
O=C(CCCCCCCCCCc1ccccc1)C1=C(O)CCCC1=O	inactive: 40.7 µM
O=C1C=Cc2ncccc2C1=O	inactive: 25.2 µM
COc1c(O)c(O)cc2c1-c1ccc(OC)c(=O)cc1C(NC(C)=O)CC2 (centres undefined)	inactive: 4.92 µM
CCOC(=O)C1=CC(C)(C(=O)OCC)Nc2c(nc(N)[nH]c2=O)N1 (centres undefined)	inactive: > 10 µM
Oc1cccc2nc3cc(CN4CCOCC4)c(CN4CCOCC4)cc3nc12	inactive: 83.4 µM
COc1ccc(C2SCC(=O)N2NC(=O)c2ccc(NC(C)=O)cc2)cc1 (centres undefined)	inactive: > 100 µM
COC1(OC)C2C=CC1C([C@](C)(N)CO)C2 (some centres undefined)	inactive: > 100 µM
O=[N+]([O-])/C=C/c1cn(CCCCCCCCn2cc(/C=C/[N+](=O)[O-])c3ccccc32)c2ccccc12	inactive: > 10 µM
CC(C)=CCC\C(C)=C/C=C/C(C)=C\C=C\C(C)=C/C=C/C=C(C)\C=C\C=C(C)/C=C/C=C(/C)CCC=C(C)C	inactive: > 100 µM
CN(C)c1ccc(/C=N/NC(=O)c2cnc3ccccc3c2)cc1	inactive: > 100 µM
Cc1cccc(O)c1-c1nnc(CCCCCCCCc2nnc(-c3c(C)cccc3O)n2N)n1N	inactive: > 100 µM
S=C(N/N=C/c1ccccn1)N1CCCCCC1	active: < 0.0446 µM
CSc1nc2c(ncn2C2OCC(O)C(O)C2O)c(=O)n1C (centres undefined)	inactive: > 100 µM

SMILES	GI50
COc1cc2noc(-c3ccccc3)c2cc1OC	inactive: > 100 µM
Cc1ccc(C)c(N2C(=O)C(=O)c3c(C)ccc(C)c32)c1	inactive: 28.4 µM
c1ccc2c(c1)c1ccccc1c1n[se]nc21	inactive: 81.7 µM
COc1cc(C(C)c2cc3c(cc2OCCCCCOc2cc4c(cc2C(C)c2cc(OC)c(OC)c(OC)c2)OCO4)OCO3)cc(OC)c1OC (centres undefined)	inactive: > 100 µM
CC1(C)C=Cc2c(cc3oc4ccc5c(c4c(=O)c3c2O)C=CC(C)(C)O5)O1	inactive: > 100 µM
O=CC(O)C(O)C(O)C(O)C(=O)NCCCCCCCCCCCCNC(=O)C(O)C(O)C(O)C(O)C=O (centres undefined)	inactive: > 100 µM
O=C(Nc1ccc(C(F)(F)F)cc1)NC(F)(F)F	inactive: > 100 µM
O=C(Nc1noc(-c2ccccc2)n1)c1ccccc1CNc1noc(-c2ccccc2)n1	inactive: > 100 µM
Cn1c(N)cc(=O)nc1N	inactive: > 100 µM
O=C(/C(=C/c1cccs1)c1ccccc1)c1ccccc1	inactive: > 100 µM
COc1ccc(C(=O)N=C2N(c3ccccc3)C(=N/c3ccccc3)/C(=N\c3ccccc3)N2c2ccccc2)cc1	inactive: > 100 µM
COC(=O)C12C3C4C5(C(=O)OC)C(C1C35C(=O)N(C(C)C)C(C)C)C42C(=O)N(C(C)C)C(C)C (centres undefined)	inactive: > 50 µM
O=C(O)CCCCCO	inactive: > 100 µM
Cc1ccc(C(=O)C(C)N)cc1C (centres undefined)	inactive: > 100 µM
CC(NC(=O)OCc1ccccc1)NC(=O)C(CC(=O)OC(C)(C)C)NC(=O)OC(C)(C)C (centres undefined)	inactive: > 100 µM
COc1ccc(OC)c2c1C1CCC(=O)N1CN2C(C)=O (centres undefined)	inactive: > 100 µM
NC(=O)c1c(NC=O)ncn1C1OCC(O)C(O)C1O (centres undefined)	inactive: > 100 µM
CC1OC(OC2C(O[C@@H]3C[C@@H]4CC[C@@H]5[C@H](CC[C@]6(C)C7C(C[C@@H]56)O[C@]5(CC[C@@H](C)CO5)[C@H]7C)[C@@]4(C)C[C@H]3O)OC(CO)C(O)C2O)C(O)C(O)C1O (some centres undefined)	inactive: 1.75 µM
O=C(Nc1cc([N+](=O)[O-])cc([N+](=O)[O-])c1)OC1C2CCC1C1OC1C2 (centres undefined)	inactive: > 50 µM
O=c1[nH]c2ccccc2c(=O)n1/N=C\c1ccccc1O	inactive: > 100 µM
O=C(Cc1nc2ccccc2o1)C(=O)Nc1cccc(C(F)(F)F)c1	inactive: > 100 µM
Nc1nc2cc(CNc3ccc(C(=O)O)cc3)ccc2nc1-c1ccccc1	inactive: > 100 µM
Cc1ccc(NC(=O)C(=O)C2C(=O)NC(=O)NC2=O)cc1C	inactive: > 100 µM
CCOC(=O)/C=C(/C(=O)OCC)n1ccc(=O)[nH]c1=O	inactive: 17.5 µM

SMILES	GI50
CC(C)(C)OC(=O)NC(Cc1ccc([N+](=O)[O-])cc1)C(=O)NC(CCCCNC(=O)OCc1ccccc1)C(=O)ON1C(=O)CCC1=O (centres undefined)	inactive: > 100 µM
O=[N+]([O-])C(=C(N1CCOCC1)N1CCOCC1)/C(Cl)=C(\Cl)[N+](=O)[O-]	inactive: 23 µM
Cc1ccc(S(=O)(=O)N/N=C2\CCCCC23CCC(=O)NC3)cc1 (centres undefined)	inactive: > 100 µM
COc1ccc(CC2(O)C3CC4CCC2C4C3)cc1 (centres undefined)	inactive: > 100 µM
CCC12C=CCN3CCC4(c5cc(C(c6ccc(OC)cc6)C6Cc7ccccc7N6)c(OC)cc5N(C)C4C(O)(C(=O)OC)C1O)C32 (centres undefined)	inactive: 30.8 µM
Cc1sc2c(c1C)/C(=N\O)c1cccn1-2	inactive: 48 µM
CSC1=N/C(=C\c2ccccc2)C(=O)N1CN1CCOCC1	inactive: > 100 µM
CC(C)(C)c1cc2ccc(C(N)=O)cc2c(=O)[nH]1	inactive: > 100 µM
O=C(OC1C#CCSCC#C/C=C\1)c1cnc2ccccc2n1 (centres undefined)	inactive: > 100 µM
O=S(=O)(SCCCCSS(=O)(=O)c1ccc(Cl)cc1)c1ccc(Cl)cc1	inactive: 14.9 µM
CCOP(=O)(OCC)C(Cc1ccc(Cl)cc1)NS(=O)(=O)c1ccc(C)cc1 (centres undefined)	inactive: > 100 µM
[O-][S+](Nc1ccccc1)c1ccccc1Oc1ccccc1 (centres undefined)	inactive: 21.7 µM
CC(C)C1=CC23CCC4C(C)(C(=O)O)CCCC4(C)C2CC1C1C(=O)N(c2cccc(N4C(=O)C5C6CC7C8(C)CCCC(C)(C(=O)O)C8CCC7(C=C6C(C)C)C5C4=O)c2)C(=O)C13 (centres undefined)	inactive: 1.93 µM
Nc1ncnc2c1nc(Cl)n2C1OC2COP(=O)(O)OC2C1O (centres undefined)	inactive: > 28.5 µM
FC(F)(F)c1ccc(/N=N/N2CCCC2)cc1	inactive: > 100 µM
CC(CC(C)[C@H]1CCC2[C@H]3C(CC[C@@]21C)[C@@]1(C)CCC(O)C[C@H]1C[C@@H]3O)C(=O)O (some centres undefined)	inactive: > 100 µM
CC(=O)OC1C(C)OC(OC2C[C@](O)(C(C)=O)Cc3c(O)c4c(c(O)c32)C(=O)c2ccccc2C4=O)C(F)C1OC(C)=O (some centres undefined)	active: 0.0798 µM
COC(=O)C1CCC[C@H]2C(CO)=C(C)C(=O)[C@@H]12 (some centres undefined)	inactive: > 100 µM
FC1OC2OC1C(OCc1ccccc1)C(OCc1ccccc1)C2OCc1ccccc1 (centres undefined)	inactive: > 100 µM
CS(=O)(=O)CS(=O)(=O)OCCCl	inactive: 396 µM
O=C(O)C1CCCCC1c1c2ccc(=O)c(O)c-2oc2c(O)c(O)ccc12 (centres undefined)	inactive: 67 µM
Nc1ccc(N)c2c1C(=O)c1ccccc1C2=O	inactive: 16.3 µM
